In PubChem BioAssay AID485344 (National Center for Advancing Translational Sciences (NCATS), 2010) one finds inhibition data, which are given here for 95 compounds.

The structures appear in SMILES notation. Screen size: about 340,000 compounds; about 6,900 (2%) were called active. Cut-off read from the data, not from the text of the source: active = inhibition above about 30%; inactive = below that, where a call was filed. This is a selection; strong and weak results do not stand in their true shares. The source gives no active or inactive call for entries shown without one.

As a reminder, the inhibition is the change of the read-out against control, counted positive when it falls.

This test deals with D(2) dopamine receptor (Homo sapiens) (UniProt P14416). The experiment in a line: HTS Assay for Allosteric Antagonists of the Human D2 Dopamine Receptor: Primary Screen for Antagonists. Note: 0% is about no effect. As to conditions: HEK293 TREx D2 cells, calcium flux, dopamine EC80; at 10 µM; stronger effect = higher value. The essentials: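 Inhibition of EC80 dopamine-driven calcium flux, recorded kinetically, defines activity here; cells are a tetracycline-induced HEK293 T-REx line expressing force-coupled D2.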
Chain of UniProt P14416 (P14416 whole entry, looked up): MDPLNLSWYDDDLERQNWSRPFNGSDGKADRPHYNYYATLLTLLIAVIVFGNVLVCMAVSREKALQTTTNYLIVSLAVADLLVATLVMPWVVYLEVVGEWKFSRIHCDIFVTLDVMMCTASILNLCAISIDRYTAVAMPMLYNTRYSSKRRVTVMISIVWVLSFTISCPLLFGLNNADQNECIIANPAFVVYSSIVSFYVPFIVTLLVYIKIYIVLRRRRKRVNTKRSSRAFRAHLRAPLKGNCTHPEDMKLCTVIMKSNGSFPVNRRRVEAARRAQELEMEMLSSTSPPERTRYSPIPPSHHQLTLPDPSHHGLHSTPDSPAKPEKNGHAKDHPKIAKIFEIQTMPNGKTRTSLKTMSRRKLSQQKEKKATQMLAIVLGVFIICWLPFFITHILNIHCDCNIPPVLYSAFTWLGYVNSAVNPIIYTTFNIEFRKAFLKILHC
(Calcium assays in cells follow changes in intracellular calcium, usually with a dye or a luminescent sensor.)
Regarding `COc1ccc(CN2CCCC(C(=O)Nc3cccc(-n4cccn4)c3)C2)cc1` (stereo not given), the inhibition was active: 78.6%.

Turning to `Cc1ccc(NC(=O)C(C)Sc2nc(=O)cc(N)n2-c2cccc(C)c2)cc1` (stereo not given), the inhibition was 19.6%.

For the compound `Cc1c(C2=CCN(S(=O)(=O)c3cccc(Cl)c3)CC2)c2ccccc2n1CC(=O)N1CCCC1`, the inhibition came to 9.86%. The result for `CN(Cc1ccccc1)S(=O)(=O)c1ccc(-c2cnc(C3CC3)o2)cc1` reads -16.3%; that for `COc1cccc(S(=O)(=O)N2CCN(Cc3ccc4c(c3)OCO4)CC2)c1`, 18%. Then `CCc1ccc(-c2nc3c(c(SCc4ccccc4F)n2)Cc2c(CO)cnc(C)c2O3)cc1`, with -4.83%; and `Cc1cccc(N2CCN(C(=O)CN3CCSc4ccccc43)CC2C)c1` (stereo not given), with -19.2%; and `CCOc1ccc(NC(=O)NCCc2c(C)nn(C)c2C)cc1`, with 15.5%. The result for `COc1ccc(OC)c(CNC(=O)c2ccc(-c3nc(CSc4ccccc4)c(C)o3)cc2)c1` reads 1.75%. With `CC1CCc2nn(CC(=O)Nc3ccccc3Cl)cc2C1` (stereo not given), the inhibition was determined as 2.82%. Regarding `Cc1ccc(NC(=O)c2cnn3c(C(F)F)cc(-c4ccccc4)nc23)cc1F`, the inhibition worked out at 15%. The result for `CCCn1c(SCc2nc(-c3ccc(OC)c(OC)c3)no2)nnc1-c1ccccc1` reads -10.2%.

For the compound `CC(C)Oc1ccc(C(=O)N2CCN(CCc3ccccn3)CC2)cc1`, the inhibition is -3.81%. The result for `O=C(NCCc1ccccc1)C1CCC(CNS(=O)(=O)c2ccccc2)CC1` (stereo not given) reads -12.8%. Then `CCCc1nc(SC)ncc1C(=O)N1CCN(c2ccc(Cl)cc2)CC1`, with 5%; and `COc1ccc(CN(Cc2ccco2)c2cnc(S(C)(=O)=O)nc2C(=O)Nc2ccc(C)c(Cl)c2)cc1`, with -0.493%; and `O=C(Nc1ccc2nc(SCC(=O)N3CCc4ccccc43)sc2c1)c1ccc(F)cc1`, with 20.6%. The result for `O=c1c2oc3ccccc3c2n(Cc2ccccc2Cl)c(=O)n1Cc1ccco1` reads 7.81%. For the compound `O=C(CCS(=O)(=O)c1cc2c(cc1Cl)NC(=O)CO2)NCc1ccccc1Cl`, the inhibition was found to be 8.72%. For the compound `CC(C)Oc1ccc(CNC(=O)c2ccc(CN3CC(=O)N4CCCCC4C3=O)cc2)cc1` (stereo not given), the inhibition is -0.272%. The result for `Oc1c(C(c2ccc(Cl)cc2Cl)N2CCN(c3ccccc3)CC2)sc2nc(-c3ccco3)nn12` (stereo not given) reads -13%; that for `O=C(NCc1cccc(Cl)c1)c1ccc(NC(=O)N2CC3CCCN3c3ccccc32)cc1` (stereo not given), 0.453%. Then `CSc1ncc(C(=O)NCc2cccc(F)c2)c(-c2ccccc2)n1`, with 14.7%; and `O=C(c1ccccc1)N(Cc1ccco1)C1CCS(=O)(=O)C1` (stereo not given), with active: 37.4%. Then `Cc1sc2ncn(CC(=O)N3CCN(c4ccc(F)cc4)CC3)c(=O)c2c1S(=O)(=O)N1CCC(C)CC1`, with 1.35%; and `Cc1ccc(CNC(=O)Cn2c(=O)cc(C(F)(F)F)c3c(C)nn(C)c32)cc1`, with 8.79%. Take `COC(=O)C1=C(c2ccccc2)c2ccccc2S(=O)(=O)N1CC(=O)Nc1ccc(F)c(F)c1`: the inhibition was 12.6%. The result for `CCOc1ccc(-c2nc(Cn3c(=O)cc(-c4ccccc4)c4c(C)nn(C)c43)c(C)o2)cc1` reads -2.72%; that for `CCCCN1C(=O)c2ccc(C(=O)Nc3ccccc3N3CCOCC3)cc2C1=O`, active: 43.8%. Then `CCOc1ccc(NC(=O)CN(c2ccc(CC)cc2)S(=O)(=O)c2c(C)noc2C)cc1`, with -2.7%; and `CCN1c2ccccc2-c2nc(SCC(=O)NCc3ccc(C)cc3)ncc2S1(=O)=O`, with -6.95%.

Consider `CCOC(=O)c1ccc(NC(=O)Cn2cc(C(=O)c3ccc(CC)cc3)c(=O)c3ccc(C)nc32)cc1`, for which the inhibition was -2.29%.

For `COc1ccc(CNC(=O)c2cnc3sc(N4CCCCCC4)nn3c2=O)cc1`, the inhibition was -1.05%.

`CCOC(=O)c1cnc2ccccc2c1NCCc1ccc(OC)c(OC)c1`: the inhibition is -17%.

Consider `CCN1CCN(C2=C(NS(=O)(=O)c3ccc(C)cc3)C(=O)c3ccccc3C2=O)CC1`, for which the inhibition is active: 39.3%.

Regarding `COc1cc(OC)c(C2Nc3c(C)cccc3-c3cc(C)nn32)cc1OC` (stereo not given), the inhibition turned out to be 10.4%. The result for `COC(=O)c1ccc(NC(=O)CC2C(=O)N(c3ccc(Cl)cc3)C(=O)N2Cc2ccco2)cc1` (stereo not given) reads 5.4%.

With `O=C1CCCc2c1[nH]c1ccc(CN3CCCCC3)cc21`, the inhibition was active: 50.9%. Then `CC1=C(c2ccc(C)cc2)S(=O)(=O)NC1=NCc1cccc(F)c1`, with 10.2%. Then `CCN1C(=O)c2ccccc2S(=O)c2ccc(C(=O)N3CCN(c4cccc(C)c4)C(C)C3)cc21` (stereo not given), with -18.2%; and `c1ccc(CN2CCN(c3ncnc4nc[nH]c34)CC2)cc1`, with active: 68.3%; and `Cc1[nH]c2ccccc2c1C1N2CC3(C)CN1CC(C)(C2)C3=O` (stereo not given), with -6.7%. Then `CC1=C(C(=O)OCc2ccccc2)C(c2cccc(Cl)c2Cl)CC(=O)N1` (stereo not given), with 8.87%; and `O=C(Nc1ccc(Br)cc1F)N1CCC(CN2CCCC2)CC1`, with 18.3%; and `Cc1nn(C)c2c1c(C(F)(F)F)cc(=O)n2C(C)C(=O)NCc1ccc(Cl)cc1` (stereo not given), with -27.5%. For `CCOC(=O)c1ccc(NS(=O)(=O)c2cc(-c3onc(C)c3C)ccc2C)cc1`, the inhibition came to 7.57%. Then `Cc1cccc(CNC(=O)CSCc2cnn(-c3ccccc3)c2-n2cccc2)c1`, with -3.01%; and `COc1ccc(OCc2nc3c4c(-c5ccccc5)c(-c5ccccc5)oc4ncn3n2)cc1`, with 5.44%; and `COc1cccc(C(=O)c2cn(CC(=O)NCc3ccccc3)c3nc(C)ccc3c2=O)c1`, with -8.55%. The result for `COC(=O)c1sc(NC(=O)/C=C/c2ccc(OC)c(OC)c2)c(C(=O)OC)c1C` reads 18%; that for `COc1ccc(CNC(=O)CSc2nc3ccccc3nc2Cc2ccccc2OC)cc1`, 1.68%. Then `CCN1CCN(c2cc3c(cc2F)c(=O)c(S(=O)(=O)c2ccccc2)cn3C)CC1`, with 7.62%. For the compound `CC(C)NC(=O)CCCN1C(=O)CCn2nc(-c3cccn3C)cc21`, the inhibition came to 13.5%. Then `COC(=O)c1cc2c(cc1NC(=O)c1cnn(-c3ccc(C)cc3)c1-n1cccc1)OCO2`, with 10.8%; and `COc1ccc(-c2nn(-c3ccccc3)cc2/C=N/NC(=O)c2cccc(S(=O)(=O)Nc3ccccc3Cl)c2)cc1`, with active: 45.2%; and `COc1ccccc1NC(=O)CSc1nc2ccccc2c2nc(-c3ccccc3)nn12`, with 2.73%. `COc1ccccc1-c1cc(C(=O)Nc2ccccc2C(F)(F)F)no1`: the inhibition is -14.5%. The result for `Cc1ccc(C2=Nc3ccccc3N(CC(=O)NCc3ccc(F)cc3)C(=O)C2)cc1C` reads -3.46%. The result for `O=C(O)c1ccc(-n2c(/C=C\c3ccc(O)cc3)nc3ccccc3c2=O)cc1` reads -15.1%; that for `CCOC(=O)c1ccccc1NC(=O)c1sc2ncn(Cc3cccc(F)c3)c(=O)c2c1C`, 16.5%. The result for `COc1ccc(OC)c(S(=O)(=O)NCc2cccn2Cc2cccc(C)c2)c1` reads 10.1%. For the compound `CC1=C(C(=O)Nc2cccnc2)C(c2ccc(Cl)cc2)n2nc(-c3ccccc3)nc2N1` (stereo not given), the inhibition was -1.83%.

Turning to `Cc1ccc(C)c(NC(=O)CSc2c3c(nc4ccc(Cl)cc24)CCCC3)c1`, the inhibition is 7.74%.

On to `COc1cn(CC(=O)Nc2cccc(C)c2C)c(CN2CCCCC2)cc1=O`, for which the inhibition came out at 13.1%. Then `Cn1c(=O)c2c(nc3n(-c4ccc(O)cc4)c(-c4ccc(Br)cc4)cn23)n(C)c1=O`, with 2.73%; and `COc1ccc(C(=O)Nc2cccc(OCc3cc(=O)n4c5c(sc4n3)CCCC5)c2)cc1`, with 4.99%. Then `Cc1nc2ccccn2c(=O)c1NC(=O)c1ccc(C(F)(F)F)cc1`, with 7.94%; and `COc1ccccc1NC(=O)CN1CCCN(S(=O)(=O)c2ccc(Br)cc2)CC1`, with 4.32%; and `Cc1ccc(NC(=O)Cn2c(=O)n(CCCCC(=O)NCc3ccccc3Cl)c(=O)c3ccccc32)cc1C`, with -15.1%. The result for `CCOc1ccc(NC(=O)Cn2c(C)cc3ccccc3c2=O)cc1` reads 3.57%; that for `Cc1cc(Nc2ccc(F)cc2)n2c(nc3ccccc32)c1C#N`, 10.4%. As for `COC(=O)c1ccccc1NC(=O)c1ccc2c(c1)CCN2S(C)(=O)=O`, the inhibition amounted to 17%.

On to `COc1cc(Nc2ncc3c(n2)CCN(Cc2cc(Br)cs2)C3)cc(OC)c1`, for which the inhibition was determined as 0.122%. The result for `Cc1c(-c2nc(-c3ccccc3)no2)nnn1-c1cccc(C(F)(F)F)c1` reads -6.6%. The result for `Cc1ccc(CSc2nc3c([nH]c4ccccc43)c(=O)n2C)cc1` reads -15.6%; that for `COc1ccccc1CNC(=O)c1ccc2c(c1)nc(C)n2-c1ccccc1OC`, -9.31%; that for `Cc1nn2c(-c3ccco3)ccnc2c1-c1ccc(F)cc1`, 13.6%. Then `CCN1CCOC(=O)C1CC(=O)Nc1cc(C)cc(C)c1` (stereo not given), with 3.8%; and `Cc1ccccc1CN1C(=O)c2ccccc2Sc2ccc(C(=O)NC(C)c3ccccc3)cc21` (stereo not given), with 4.95%; and `COc1ccc(NC(=O)CC2C(=O)N(c3ccc(F)cc3)C(=O)N2Cc2ccco2)cc1` (stereo not given), with 4.02%. In the case of `Cc1ccc(N2C(=O)CCSC23C(=O)N(Cc2ccccc2)c2ccccc23)cc1F` (stereo not given), the inhibition was -8.78%. Then `O=C(NCc1ccccc1)c1nn(-c2ccccc2)nc1CO`, with 10.2%; and `COc1ccc(OC)c(/C=C(/C#N)c2nc(-c3ccc(-c4ccccc4)cc3)cs2)c1`, with 21.6%; and `Cc1ccc(CNC(=O)Cn2c(=O)n(-c3ccc(Cl)cc3)c(=O)c3c(C)c(C)sc32)cc1`, with -0.592%. Then `O=C(NCc1ccc(F)cc1)c1cc2c(=O)n3ccccc3nc2s1`, with 4.44%; and `Cc1cc(C)cc(NS(=O)(=O)c2ccc3[nH]cc(C(=O)N(C)Cc4ccccc4)c(=O)c3c2)c1`, with 3.41%.

Regarding `Cc1ccc(-c2nnc(C3CCN(S(=O)(=O)c4ccc(C)c(C)c4)CC3)o2)cc1`, the inhibition stood at 2.78%.

Turning to `CCOc1ccccc1NC(=O)CN1C(=O)CC(c2ccc(OC)c(OC)c2)Sc2ccccc21` (stereo not given), the inhibition turned out to be 8.39%. Then `CCCCOC(=O)c1ccc(NC(=O)CSc2nc3c(c(=O)[nH]2)CCCC3)cc1`, with 9.5%; and `Cn1c(-n2cccc2)c(-c2c(-c3ccccc3)[nH]c3c2c(=O)n(C)c(=O)n3C)c(=O)n(C)c1=O`, with 10.4%; and `COc1ccc(Cl)cc1Nc1nc(C)cc(=O)[nH]1`, with active: 74.4%. The result for `CCc1ccccc1NC(=O)Nc1nnc(N(C)Cc2ccccc2)s1` reads 0.384%; that for `Clc1ccc(N2CCN(c3ncnc4c3cnn4-c3ccccc3)CC2)cc1Cl`, 12.8%. The result for `COc1ccc(NC(=O)c2cc(S(=O)(=O)N3CCCCCC3)cn2C)cc1Cl` reads -10.6%; that for `COc1ccc(CNC(=O)CCNS(=O)(=O)c2cccc3nsnc23)cc1`, -6.2%.
